Source: PubChem BioAssay AID1508624 (National Center for Advancing Translational Sciences (NCATS), 2021)
Screen size: about 48,000 compounds; about 120 (0.25%) were called active. Another 4% or so got no clear call; they are omitted. The call rests on the fitted dose curve; in most records, active means well fitted activation curve with a large enough effect; inconclusive means small, poorly fitted or top-dose-only effect, or another doubt; inactive means no such curve, though single readings can be large or run the other way. The list shows a part of the results.

Assay: Primary qHTS for Identification of Small Molecule Activators of Huntingtin-Antisense Promoter Activity; further: nearly all actives have a fitted effect of over 55% in size
Details: HEK293 HTT-AS promoter firefly luciferase reporter (activity 0% = vehicle and -100% = no light), 24 h; series mostly up to 57.5 µM; activity change, positive = activation: at the top concentration
How it was run: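 Firefly luciferase signal from promoter-reporter HEK293 cells was scaled between vehicle (0%) and zero RLU (-100%). Compounds were tested at final concentrations of up to 57.5 uM over 24 h at 37 degrees C. PTC124 at 50 uM final served as control inhibitor.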

Activity change, positive = activation, inactive:
O=C(Nc1ccc(Cl)cc1C(F)(F)F)c1cc(S(=O)(=O)NCc2ccccc2)ccc1F -26.8%
CCc1ccc(CNC(=O)c2ccc(CS(=O)(=O)Cc3ccccc3C)o2)cc1 -37.5%
CCN(CC)C(=O)C1CCN(C(=O)c2cnn(-c3ccccc3)c2-n2cccc2)CC1 -16.5%
O=C(CSc1nccn1C1CCCC1)Nc1ccccc1 25.4%
CCOC(=O)CSc1nc2ccccc2n2c(C)nnc12 0.692%
CCc1ccccc1NC(=O)CSc1nccn1C -14.6%
CCOC(=O)c1cc(OC(=O)c2cc(Cl)ccc2OC)n(-c2ccccc2)n1 -3.87%
CCc1ccc(S(=O)(=O)c2nnn3c2nc(NCCC(C)C)c2cc(Cl)ccc23)cc1 -3.38%
CC(=O)c1ccc(OC(=O)c2c(-c3ccccc3Cl)noc2C)cc1 -20.1%
COc1ccc2c(c1)c(CC(=O)Nc1cc(C)c(OC)c(C)c1)c(C)n2C(=O)c1ccc(Cl)cc1 -23.3%
O=C(COc1ccc(Cl)cc1Cl)Nc1ccc(C(=O)OC2CCCCC2)cc1 -22.3%
Cn1nc(C(=O)Nc2cccc(C(F)(F)F)c2)c2c1-c1ccccc1S(=O)(=O)C2 8.38%
CCCN(CCC)S(=O)(=O)c1ccc(C(=O)N2CCn3c4c(c5cc(C)ccc53)CCCC42)cc1 (stereo not drawn) -29.8%
CCOc1ccc(NS(=O)(=O)c2ccc3[nH]cc(C(=O)NCCc4ccccc4)c(=O)c3c2)cc1 3.41%
COc1ccccc1Nc1ncnc2c1nc1n2CCCCC1 -2.95%
Cn1c(SCC(=O)Nc2ccccc2F)nc2c([nH]c3ccccc32)c1=O -19.3%
CC(=O)c1cc(-c2ccccc2)n(CC(=O)Nc2ccc(C)cc2C)c1C -9.25%
Nc1nonc1-c1nc2ccccc2n1CC(=O)Nc1ccc(F)cc1 -5.15%
Cc1ccc(S(=O)(=O)c2cn(CC(=O)Nc3ccccc3)c3cc4c(cc3c2=O)OCO4)cc1 -16.4%
Cc1ccc(-c2nc(CS(=O)CC(=O)O)c(C)o2)cc1 (stereo not drawn) -5.85%
Fc1ccc(C(c2ccc(F)cc2)N2CCNCC2)cc1 -2%
CCOc1ccccc1NC(=O)NC(CC)c1c(-n2cccc2)sc2c1CCN(C)C2 (stereo not drawn) -8.09%
Cc1cccc(N2CCN(C(=O)c3ccc4c(c3)CCN4S(=O)(=O)c3ccccc3)CC2)c1C -22.5%
CCc1ccc(Nc2nc3ccccc3c3nnc(C)n23)cc1 -14.1%
Cc1cccc(C(=O)NCc2cn3cccc(C)c3n2)c1 -5.79%
CC(C)c1ccc(Cc2cnc(NC(=O)c3ccc4c(c3)CC(c3ccccc3)OC4=O)s2)cc1 (stereo not drawn) -68.4%
O=c1cc(N2CCN(c3ccc(F)cc3)CC2)[nH]c(=O)n1-c1cccc(Br)c1 -29%
Cc1ccc(-n2c(=O)c3cccnc3n2CC(=O)Nc2ccccc2C(F)(F)F)cc1C -18.8%
COc1cccc(CNC(=O)C2CCCN(S(=O)(=O)c3cn(C)cn3)C2)c1 (stereo not drawn) -4.12%
CC[C@H](C)NC(=O)CCCc1nnc2n(CCC(C)C)c(=O)c3sccc3n12 -8.97%
Cc1ccc(C)c(NC(=O)C(NS(=O)(=O)c2ccc3c(c2)CCC(=O)N3)c2ccccc2)c1 (stereo not drawn) -13.1%
COc1ccccc1OC(C)C(=O)N1CCN(CCc2ccccn2)CC1 (stereo not drawn) -6.38%
COc1ccc(-c2cn3c(n2)sc2cc(C(=O)NC4CCCCC4)ccc23)cc1 -13.3%
Cc1ccnc(NC(c2cc(C)ccc2O)c2ccc3cccnc3c2O)c1 (stereo not drawn) -33.9%
COc1ccc(S(=O)(=O)N(C(=O)c2ccncc2)c2ccc3oc(C)c(C(C)=O)c3c2)cc1 -50.8%
Cc1ccc(CNC(=O)C2CCN(S(=O)(=O)c3c(C)noc3/C=C/c3ccccc3F)CC2)o1 1.95%
COc1ccccc1N1CCN(Cc2cc(COC(C)C)c3cccnc3c2O)CC1 -33.5%
CCOC(=O)C1CCCN(C(=O)Cn2nc(C)n3c(cc4c(OC)cccc43)c2=O)C1 (stereo not drawn) -17.3%
CCC(C)n1c(=N)c(C(=O)NC2CCCCC2)cc2c(=O)n3cc(C)ccc3nc21 (stereo not drawn) -9.32%
CCC(=O)N1c2ccccc2CC1C(=O)NCCN1CCN(c2ccccc2F)CC1 (stereo not drawn) -11.6%
Cc1ccc(NC(=O)CSc2nc(=O)n(CCN3CCOCC3)c3c2CCC3)cc1Cl -29.8%
Cn1c(=O)nc2n(-c3ccc(Br)cc3)c3cccc(Cl)c3cc-2c1=O -8.98%
Cc1ccc(C)c(N2CCN(S(=O)(=O)c3ccc(C4CCCCC4)cc3)CC2)c1 -10.4%
CC(C)(C)OC(=O)N1CCC(c2c(C(=O)NCc3ccccn3)cnn2-c2ccccc2Cl)CC1 -7.7%
CCCc1noc(-c2ccc(NCc3ccccc3OC)c([N+](=O)[O-])c2)n1 -14.2%
CC(C)c1ccc(NC(=O)CSC2=Nc3ccccc3C3=NC(CC(=O)NCCc4ccccc4)C(=O)N23)cc1 (stereo not drawn) -28.5%
Cc1[nH]c2ccccc2c1SCCNC(=O)c1ccc(F)cc1 -29.2%
COc1ccc(Cl)cc1NC(=O)c1c(NCc2cccs2)sc2c1CCC(C)C2 (stereo not drawn) -20.7%
CCOc1ccccc1NC(=O)CSc1nc(-c2cccs2)cc(C(F)(F)F)n1 -2.95%
Cc1cc(-c2ccc(C)c(S(=O)(=O)NCCc3ccccc3)c2)on1 -17.7%
O=C(Nc1cc(-c2nc3ccccc3o2)ccc1Cl)c1cc([N+](=O)[O-])ccc1N1CCOCC1 4.83%
COc1cccc(CNC(=O)C2CCN(c3ncnc4c3nc3n4CCCCC3)CC2)c1 -18.1%
O=C1CCC[C@@H]2[C@H]3CCC[N+]4([O-])CCC[C@@H](CN12)[C@@H]34 (stereo partly drawn) -12.1%
Cn1cc(-c2cc3n(n2)CCC(=O)N3CC(=O)NCc2ccccc2)c2ccccc21 -10.4%
Cc1ccccc1C(=O)Nc1ccc2nc(SCC(=O)N(C)c3ccccc3)sc2c1 -32%
CN(C)C1(CNC(=O)COc2cccc(Cl)c2)CCCCC1 -19.5%
Cc1cccc(Cn2c(SCc3ccc(C(=O)NCc4cccs4)cc3)nc3ccncc32)c1 -21.6%
COc1ccc2c(c1)Cc1sc(NC(=O)c3cccc(Cl)c3)nc1-2 2.35%
CC1CCN(S(=O)(=O)c2ccc3nc(N4CCN(c5ccccc5F)CC4)ccc3c2)CC1 -5.55%
COc1ccc(/C=C(\C#N)c2nc(-c3cc4ccccc4oc3=O)cs2)cc1OC -11.7%
Cc1ccc(-c2onc(C)c2C)cc1S(=O)(=O)NC1CCC(C)CC1 (stereo not drawn) -46.8%
CCOc1cc(C2CC(=O)Nc3c2c(C)nn3-c2nc(C)cc(C)n2)ccc1O (stereo not drawn) -2.79%
COC(=O)c1cccnc1-n1c(=O)c2cccnc2n(CC(=O)Nc2cccc(C(F)(F)F)c2)c1=O -23.2%
COc1cc(C)ccc1OCCSc1nnc(-c2cccs2)o1 2.27%
FC(F)(F)c1cccc(N2CCN(Cc3nnc(-c4ccccc4)o3)CC2)c1 -12.1%
CCOc1ccccc1CNC(=O)c1ccc(Cn2c(=O)c3cccn3c3cccnc32)cc1 -21.7%
CC(C)c1ccc(-c2noc(SCC(=O)N3CCCCC3)n2)cc1 17.2%
CCCN(CCC)CCCNC(=O)c1nn(C)c2c1CS(=O)(=O)c1ccccc1-2 -10.8%
O=c1c2ccccc2nc2sc(Nc3cccc(C(F)(F)F)c3)nn12 13.7%
COC(=O)c1cc(Cl)ccc1NS(=O)(=O)C(F)(F)F -1.74%
CCN(CC)c1ccc(C2C(C(N)=O)=C(C)Nc3nc(SCc4ccccc4)nn32)cc1 (stereo not drawn) -56.3%
CSc1cccc(NS(=O)(=O)c2ccc3[nH]cc(C(=O)N4CCCCCC4)c(=O)c3c2)c1 -2.46%
Cc1cccc(Cc2c(C)nc3nc(SCC(=O)NC4CCCCC4)nn3c2C)c1 -15.8%
Fc1ccc(-c2noc3ncnc(NCc4cccc(Cl)c4)c23)cc1 -33.4%
CCOC(=O)c1nnc2c(-c3ccc(F)cc3)c(C)nn2c1N 1.04%
COc1ccccc1CNC(=O)c1cnn(-c2ccc(F)cc2F)c1C1CCN(C(=O)OC(C)(C)C)CC1 -20.2%
Cc1ccc(N2CC(NC(=O)Cc3ccc(F)cc3)CC2=O)cc1C (stereo not drawn) -9.03%
COCCN1CN=C(NS(=O)(=O)c2ccc(C)cc2)NC1 -12.5%
COc1ccc(-c2noc(CCC(=O)Nc3ccccc3Cl)n2)cc1OC -38.9%
CCOCCc1nn2c(=O)cc(COC(=O)C(CC)c3ccccc3)nc2s1 (stereo not drawn) -14.6%
Cc1cccc(C(=O)Nc2ccccc2SCc2cc(=O)c3cccc(C)c3[nH]2)c1 -23.6%
Cc1nnc(N2CCN(c3ccccc3F)CC2)c2c1nnn2Cc1ccccc1 -3.36%
COc1ccc(NC(=O)CCn2cccn2)cc1OC -10.5%
CCOc1ccc(NC(=O)Cn2c(=O)n(CCC(=O)NCCc3ccccc3)c(=O)c3ccccc32)cc1 -8.13%
CCCn1cc(S(=O)(=O)c2ccc(CC)cc2)c(=O)c2ccccc21 -12.1%
Cc1ccc2occ(-c3cc(-c4ccc(Cl)cc4)nc4c3COc3ccccc3-4)c(=O)c2c1 -9.88%
Cc1ccc(N(C)C(=O)C2CCCN(c3ncnc4c3nc3n4CCCCC3)C2)cc1C (stereo not drawn) -37.6%
Cc1ccc(Cn2c(=O)n(Cc3ccccc3Cl)c(=O)c3ccccc32)cc1 -2.12%
CCCCc1nn2c(=O)cc(COC(=O)c3ccc(NC(=O)C4CCCCC4)cc3)nc2s1 12.3%
COC(=O)CC1Oc2ccccc2-n2cc(-c3ccc(Cl)cc3)nc21 (stereo not drawn) -8.63%
Cc1ccccc1C(=O)Nc1nnc(S(=O)(=O)N2CCCCCC2)s1 -10.4%
COc1ccc(CNC(=O)Cc2csc3nc(-c4ccc(C)cc4)cn23)cc1 16.9%
Cc1ccc(Cl)cc1N1CCN(C(=O)C2CCN(Cc3nc(-c4cccc(Cl)c4)oc3C)CC2)CC1 -28.6%
CCc1nn2c(=O)cc(COC(=O)C(c3ccccc3)c3ccccc3)nc2s1 -12.6%
Cc1cccc(-c2nc(SCC(=O)Nc3ccc4c(c3)OCCO4)c(-c3ccccc3)[nH]2)c1 -10.7%
COc1ccc(-n2nc(C(=O)NCCc3cccc(C)c3)c3c4ccccc4n(C)c3c2=O)cc1Cl -9.24%
CCOC(=O)c1ccc(Nc2cc(-c3ccccc3)nc(C)n2)cc1 -13.6%
Cc1cc(C)cc(N(CC(=O)NCc2ccccc2Cl)S(=O)(=O)c2c(C)noc2C)c1 -21.3%
